Test results taken from the supplement of paper PMC9151546.
Single values are uncertain, as repeats are few or missing.

Key:
[1] = tested on: CHO-K1; assay: hypodiploid nuclei frequency (% of nucleated events); higher = more hypodiploid events (aneugenic)
Procedure: (§1)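 Flow-cytometric in vitro micronucleus assay (Litron MicroFlow) in CHO-K1 cells in 96-well plates, 19 concentrations (4.5-200 µM, n=1 per concentration). Without S9, cells were exposed for 24 h and sampled at 48 h. With Aroclor 1254-induced rat liver S9, cells were exposed for 3-4 h and sampled at 27-28 h. Read-outs are %MN and %hypodiploid nuclei relative to nucleated events, and relative survival as the nuclei-to-bead ratio versus the 1% DMSO vehicle control (x100).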

[2] = tested on: CHO-K1; assay: micronucleus frequency (% of nucleated events); higher = more micronuclei (genotoxic)
[3] = tested on: CHO-K1; assay: relative survival (nuclei to bead ratio vs DMSO control) (% of vehicle control); higher = more surviving cells
Procedure: as §1
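Wherever hypodiploid nuclei frequency (% of nucleated events) is given: hypodiploid nuclei gated on a flow cytometer with 488 nm excitation after SYTOX Green staining, cultures at 37 °C, positive controls vinblastine without S9 and cyclophosphamide with S9.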
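Wherever micronucleus frequency (% of nucleated events) is given: cells lysed with nuclei stained by SYTOX Green, then micronucleus-gated events counted against nucleated events by flow cytometry with 488 nm excitation.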
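Wherever relative survival (nuclei to bead ratio vs DMSO control) is given: Lysed-cell nuclei stained with SYTOX Green and counted against counting beads by flow cytometry at 488 nm excitation, with vinblastine (no S9) and cyclophosphamide (plus S9) as positive controls.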

CC(=O)c1ccccc1 [Acetophenone]
Conditions | hypodiploid nuclei frequency, [1] [%] | micronucleus frequency, [2] [%] | relative survival, [3]
concentration: 4.53 (µM), S9 metabolic activation: with S9, exposure time: 3-4 hours | 0.16 | 1.66 | 136
concentration: 4.53 (µM), S9 metabolic activation: without S9, exposure time: 24 hours | 0.6 | 2.54 | 118
concentration: 5.66 (µM), S9 metabolic activation: with S9, exposure time: 3-4 hours | 0.28 | 2.24 | 128
concentration: 5.66 (µM), S9 metabolic activation: without S9, exposure time: 24 hours | 0.48 | 1.44 | 96.9
concentration: 7.07 (µM), S9 metabolic activation: with S9, exposure time: 3-4 hours | 0.36 | 1.92 | 128
concentration: 7.07 (µM), S9 metabolic activation: without S9, exposure time: 24 hours | 0.68 | 1.74 | 79.6
concentration: 8.84 (µM), S9 metabolic activation: with S9, exposure time: 3-4 hours | 0.28 | 1.66 | 119
concentration: 8.84 (µM), S9 metabolic activation: without S9, exposure time: 24 hours | 0.58 | 1.52 | 84.9
concentration: 11.1 (µM), S9 metabolic activation: with S9, exposure time: 3-4 hours | 0.54 | 2.94 | 125
concentration: 11.1 (µM), S9 metabolic activation: without S9, exposure time: 24 hours | 0.74 | 1.96 | 86.3
concentration: 13.8 (µM), S9 metabolic activation: with S9, exposure time: 3-4 hours | 0.22 | 1.58 | 126
concentration: 13.8 (µM), S9 metabolic activation: without S9, exposure time: 24 hours | 0.46 | 1.92 | 72.5
concentration: 17.3 (µM), S9 metabolic activation: with S9, exposure time: 3-4 hours | 0.32 | 2.26 | 124
concentration: 17.3 (µM), S9 metabolic activation: without S9, exposure time: 24 hours | 0.5 | 3.18 | 79.6
concentration: 21.6 (µM), S9 metabolic activation: with S9, exposure time: 3-4 hours | 0.24 | 1.72 | 104
concentration: 21.6 (µM), S9 metabolic activation: without S9, exposure time: 24 hours | 0.92 | 3.98 | 94.8
concentration: 27 (µM), S9 metabolic activation: with S9, exposure time: 3-4 hours | 0.58 | 2.32 | 111
concentration: 27 (µM), S9 metabolic activation: without S9, exposure time: 24 hours | 1 | 3.68 | 78.1
concentration: 33.7 (µM), S9 metabolic activation: with S9, exposure time: 3-4 hours | 0.12 | 1.4 | 88.5
concentration: 33.7 (µM), S9 metabolic activation: without S9, exposure time: 24 hours | 0.8 | 1.74 | 93.1
concentration: 42.2 (µM), S9 metabolic activation: with S9, exposure time: 3-4 hours | 0.42 | 1.62 | 96
concentration: 42.2 (µM), S9 metabolic activation: without S9, exposure time: 24 hours | 0.68 | 1.72 | 73.8
concentration: 52.7 (µM), S9 metabolic activation: with S9, exposure time: 3-4 hours | 0.4 | 2.52 | 97.3
concentration: 52.7 (µM), S9 metabolic activation: without S9, exposure time: 24 hours | 0.88 | 2.48 | 73
concentration: 65.9 (µM), S9 metabolic activation: with S9, exposure time: 3-4 hours | 0.16 | 1.36 | 99.2
concentration: 65.9 (µM), S9 metabolic activation: without S9, exposure time: 24 hours | 1.16 | 1.92 | 69
concentration: 82.3 (µM), S9 metabolic activation: with S9, exposure time: 3-4 hours | 0.42 | 1.72 | 87
concentration: 82.3 (µM), S9 metabolic activation: without S9, exposure time: 24 hours | 1 | 1.86 | 69.9
concentration: 103 (µM), S9 metabolic activation: with S9, exposure time: 3-4 hours | 0.3 | 1.54 | 104
concentration: 103 (µM), S9 metabolic activation: without S9, exposure time: 24 hours | 1.12 | 2.9 | 60.9
concentration: 129 (µM), S9 metabolic activation: with S9, exposure time: 3-4 hours | 0.24 | 1.16 | 79.9
concentration: 129 (µM), S9 metabolic activation: without S9, exposure time: 24 hours | 0.86 | 2.14 | 59.1
concentration: 161 (µM), S9 metabolic activation: with S9, exposure time: 3-4 hours | 0.32 | 1.32 | 79.4
concentration: 161 (µM), S9 metabolic activation: without S9, exposure time: 24 hours | 1.24 | 2.14 | 72.8
concentration: 201 (µM), S9 metabolic activation: with S9, exposure time: 3-4 hours | 0.26 | 1.48 | 94.2
concentration: 201 (µM), S9 metabolic activation: without S9, exposure time: 24 hours | 1.46 | 2.78 | 80.5
